{"source": "PubChem BioAssay AID1347073", "about": "(National Center for Advancing Translational Sciences (NCATS), 2019)", "note": "About 200 (0.44%) of roughly 45,000 compounds were called active. Not shown: some 7% with an inconclusive outcome. Calls follow the shape of the dose curve; as a rule, active = well fitted activation curve with a large enough effect; inconclusive = small, poorly fitted or top-dose-only effect; inactive = no such curve, though single readings can be large or run the other way. The list shows a part of the results. Potency is read from the fitted curve at half-maximal effect."}
{"assay": "qHTS of TDP-43 Inhibitors: NCGC Sytravon Library Screen; also: nearly all actives have a fitted effect of over 55% in size; as to growth rescue (activation): 0% is about no effect", "conditions": "yeast TDP-43 toxicity rescue, BacTiter-Glo growth, 24 h; series mostly up to 46.1 µM; growth rescue (activation): at the top concentration", "procedure,_shortened": "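TDP-43-expressing yeast, pregrown in raffinose, seeded at OD600 0.02 in galactose medium with compound for 24 hr at 30 deg C. Growth read by BacTiter-Glo luminescence, so rescue of toxicity appears as activation.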"}
{"smiles": "CCOC(=O)c1nn(-c2ccccc2)c(C#N)c1N", "growth rescue (activation)": "inactive: -7.6%"}
{"smiles": "Cc1ccc(-n2c(CSc3nc(C)cc(C)n3)nnc2SCC(=O)Nc2nccs2)cc1", "growth rescue (activation)": "inactive: 3.39%"}
{"smiles": "Cc1nc(N2CCCCC2)c(C#N)c(C)c1[N+](=O)[O-]", "growth rescue (activation)": "inactive: 7.03%"}
{"smiles": "CC1(C)CC(O)C(CCC(O)c2ccccc2)C(C)(C)N1", "note": "(stereo not given)", "growth rescue (activation)": "inactive: -12.4%"}
{"smiles": "COc1cc(CNc2ncnc3c2ncn3[C@H]2CN(CCc3ccccc3)C[C@@H](CO)O2)cc(OC)c1OC", "growth rescue (activation)": "inactive: -11.1%"}
{"smiles": "COC(=O)CNC(=O)C(Cc1c[nH]c2ccccc12)NC(=O)Oc1ccccc1", "note": "(stereo not given)", "growth rescue (activation)": "inactive: 16.7%"}
{"smiles": "COC(=O)Cn1ncc2c3ccccc3n(C)c2c1=O", "growth rescue (activation)": "inactive: 22%"}
{"smiles": "CCOC(=O)C1CCCN(C(=O)c2ccc(Cl)c(S(=O)(=O)N3CCCCC3)c2)C1", "note": "(stereo not given)", "growth rescue (activation)": "inactive: 13.8%"}
{"smiles": "CCN(CCn1cccn1)C(=O)c1cc(COc2ccccc2SC)on1", "growth rescue (activation)": "inactive: 29.3%"}
{"smiles": "COc1ccc(/C=C/C(=O)Nc2ccccc2C(F)(F)F)cc1", "growth rescue (activation)": "inactive: 18.7%"}
{"smiles": "CCCCC(=O)N(C)c1c(CC)nc2c(OCCC)cccn12", "growth rescue (activation)": "inactive: 2.64%"}
{"smiles": "CN(C)c1ccc(C(=S)Nc2ccccc2)cc1", "growth rescue (activation)": "inactive: 35.2%"}
{"smiles": "COC(=O)[C@@H]1CCCN1Cc1c(C(=O)N2CCCCC2)nc2c(C)cccn12", "growth rescue (activation)": "inactive: 1.82%"}
{"smiles": "Cc1ccc(C(C)C)c(OCC(=O)NN=C2CCCC(=O)C2)c1", "growth rescue (activation)": "inactive: 18.6%"}
{"smiles": "CC1CC(C)CN(C(=S)NC2CCCCC2)C1", "note": "(stereo not given)", "growth rescue (activation)": "inactive: -3.68%"}
{"smiles": "CC(C)C(=O)N1CCN(c2ccccc2NC(=O)c2cccc3ccccc23)CC1", "growth rescue (activation)": "inactive: 20.7%"}
{"smiles": "C/C=C(\\C)CN1CCC(n2nccc2NC(=O)CCCc2ccccc2)CC1", "growth rescue (activation)": "inactive: 17.8%"}
{"smiles": "COc1ccc(-c2ccc(C(=O)NC(C)C)c3occc23)c(C)c1", "Potency": "active: 15.8 µM"}
{"smiles": "COc1ccccc1-c1coc2c(CN3CCC(C)CC3)c(O)ccc2c1=O", "growth rescue (activation)": "inactive: 5.62%"}
{"smiles": "O=C(N/N=C/c1cccnc1)c1cc(-c2cccs2)nc2ccccc12", "growth rescue (activation)": "inactive: 10.3%"}
{"smiles": "FC(F)(F)Oc1ccc(Nc2nc3ccccc3o2)cc1", "growth rescue (activation)": "inactive: 14.3%"}
{"smiles": "O=C(CSCc1ccc(F)cc1)NCc1ccc2c(c1)OCO2", "growth rescue (activation)": "inactive: 23.4%"}
{"smiles": "COc1cc(C(=O)OCC(=O)NC(=O)c2cccn2C)ccc1OC(F)F", "growth rescue (activation)": "inactive: 10.1%"}
{"smiles": "NC1=NC(=O)/C(=C\\c2ccco2)S1", "growth rescue (activation)": "inactive: 27.1%"}
{"smiles": "COc1ccc(C(=O)Cn2cnc3ccc(Cl)cc3c2=O)cc1F", "growth rescue (activation)": "inactive: -14%"}
{"smiles": "COc1ccccc1NC(=O)COC(=O)c1ccccn1", "growth rescue (activation)": "inactive: 10.4%"}
{"smiles": "CC(=O)Nc1cccc(C(=O)NNC(=O)c2n[nH]c(=O)c3ccccc23)c1", "growth rescue (activation)": "inactive: 8.83%"}
{"smiles": "CC(=O)Cn1ncc(Br)c(Br)c1=O", "growth rescue (activation)": "inactive: 12.3%"}
{"smiles": "O=C(CC1C(=O)NCCN1Cc1cccc(C(F)(F)F)c1)NC1CCOCC1", "note": "(stereo not given)", "growth rescue (activation)": "inactive: 18.4%"}
{"smiles": "CN1/C(=C\\C(=O)c2cccc([N+](=O)[O-])c2)Sc2ccccc21", "growth rescue (activation)": "inactive: 16.1%"}
{"smiles": "CCCn1c(SCC(=O)N2CCN(C(=O)c3ccco3)CC2)nc2ccccc2c1=O", "growth rescue (activation)": "inactive: -14%"}
{"smiles": "Cc1cc(Br)ccc1SCC(=O)OCC(=O)Nc1ccccc1C#N", "growth rescue (activation)": "inactive: 17.5%"}
{"smiles": "CCOc1ccc(C(=O)/C=C/Nc2ccc(S(=O)(=O)N=C(N)N)cc2)cc1", "growth rescue (activation)": "inactive: -27.4%"}
{"smiles": "CC1(C(=O)NS(=O)(=O)c2cccc(C#N)c2)CCN1C(=O)c1ccco1", "note": "(stereo not given)", "growth rescue (activation)": "inactive: -5.84%"}
{"smiles": "Nc1c(Cl)ncnc1N/N=C/c1ccnc2ccccc12", "growth rescue (activation)": "inactive: 11.1%"}
{"smiles": "COc1ccccc1CCC(=O)N1CCC(n2nccc2NC(=O)C2CCOC2)CC1", "note": "(stereo not given)", "growth rescue (activation)": "inactive: -12.2%"}
{"smiles": "Cc1cc(NS(=O)(=O)c2ccc(NC(=O)COc3ccc(C#N)cc3)cc2)nc(C)n1", "growth rescue (activation)": "inactive: 8.47%"}
{"smiles": "CC(=O)c1ccc(OCc2cc(C(=O)N(C)Cc3ncc(C)[nH]3)no2)cc1", "growth rescue (activation)": "inactive: 27.4%"}
{"smiles": "Cc1nc([N+](=O)[O-])cn1CC(=O)c1ccccc1", "growth rescue (activation)": "inactive: -9.35%"}
{"smiles": "CCC(CC)C(=O)N(C)c1c(C)nc2c(OCc3ccc(C#N)cc3)cccn12", "growth rescue (activation)": "inactive: 15%"}
{"smiles": "COc1ccc(CNC(=O)CSc2nnc3c(n2)[nH]c2ccc(F)cc23)cc1", "growth rescue (activation)": "inactive: 4.98%"}
{"smiles": "O=C(COC(=O)C1CC2C=CC1C2)Nc1cccc(S(=O)(=O)N2CCOCC2)c1", "note": "(stereo not given)", "growth rescue (activation)": "inactive: -1.84%"}
{"smiles": "CN(C)c1ccc(C=C2C(=O)OC(C)(C(C)(C)C)OC2=O)cc1", "note": "(stereo not given)", "growth rescue (activation)": "inactive: -10.9%"}
{"smiles": "CCOC(=O)C1(C)CCN1C(=O)c1ccccc1C(F)(F)F", "note": "(stereo not given)", "growth rescue (activation)": "inactive: 1.48%"}
{"smiles": "CCCCNC(=O)CSc1nc2ccc(NC(=O)CSc3nnc(N)s3)cc2s1", "growth rescue (activation)": "inactive: 5.07%"}
{"smiles": "COc1cc(/C=C/c2ccc3cccc(O)c3n2)cc(OC)c1OC", "growth rescue (activation)": "inactive: 25.3%"}
{"smiles": "CC1(C(=O)NS(=O)(=O)c2ccc(C#N)cc2)CCN1C(=O)C1(c2ccc(Cl)cc2)CCC1", "note": "(stereo not given)", "growth rescue (activation)": "inactive: 6.69%"}
{"smiles": "CCCCOC(=O)N1CCOCCOCCOCC1", "growth rescue (activation)": "inactive: -11%"}
{"smiles": "O=C1CCC(=O)N1c1ccc(-c2nc3ccccc3s2)cc1", "growth rescue (activation)": "inactive: -3.99%"}
{"smiles": "O=[N+]([O-])c1ccc2nc(NCCCO)nc(-c3ccccc3)c2c1", "growth rescue (activation)": "inactive: 17.4%"}
{"smiles": "COc1c(/C=N/NC(N)=S)c(C)nn1-c1ccccc1", "growth rescue (activation)": "inactive: 2.19%"}
{"smiles": "CCOC(=O)C1(C)CCN1C(=O)c1ccc2ccccc2c1", "note": "(stereo not given)", "growth rescue (activation)": "inactive: 19.7%"}
{"smiles": "COc1ccc(-n2c(C)c(C)c3c(N)ncnc32)cc1", "growth rescue (activation)": "inactive: 0.663%"}
{"smiles": "Cc1cccc(N(CC(=O)NC2CCCC2)C(=O)c2nsc(Cl)c2Cl)c1C", "growth rescue (activation)": "inactive: 3.1%"}
{"smiles": "Nc1ccc2nc(-c3cccc(-c4nc5ccc(N)cc5[nH]4)c3)[nH]c2c1", "growth rescue (activation)": "inactive: 26.9%"}
{"smiles": "CN1Cc2ccccc2CC1CNCc1c(C(=O)N2CCCC2)nc2ccccn12", "note": "(stereo not given)", "growth rescue (activation)": "inactive: -1.28%"}
{"smiles": "CCCCn1c(NCc2ccncc2)nc2ccccc21", "growth rescue (activation)": "inactive: -10.3%"}
{"smiles": "Cc1cccc(NC(=O)C(=O)C2C(=O)Nc3ccccc32)c1", "note": "(stereo not given)", "growth rescue (activation)": "inactive: -49%"}
{"smiles": "CCc1c(C)sc(NC(=S)N2CCN(CC)CC2)c1C(=O)OC", "growth rescue (activation)": "inactive: 9.96%"}
{"smiles": "O=C(NC1CCCCCC1)C(=O)NC1CC1", "growth rescue (activation)": "inactive: -1.49%"}
{"smiles": "COc1ccc(-c2nn(-c3ccccc3)cc2/C=N/n2cnnc2)cc1OC", "growth rescue (activation)": "inactive: 21%"}
{"smiles": "O=C(Cn1c(=O)oc2cc(S(=O)(=O)N3CCCC3)ccc21)Nc1ccccc1Br", "growth rescue (activation)": "inactive: -9.27%"}
{"smiles": "CS(=O)(=O)c1ccc2c(c1)sc1nc(=O)c(/C=C3/C=CC(=O)C(O)=C3)c(N)n12", "growth rescue (activation)": "inactive: -2.72%"}
{"smiles": "C/C(=N\\Nc1ccc([N+](=O)[O-])cc1)c1ccc(-n2nncc2C)cc1", "growth rescue (activation)": "inactive: 27%"}
{"smiles": "CC(C)OCc1c(C(=O)OC/C(O)=C(\\C#N)c2nc3ccccc3[nH]2)oc2ccccc12", "growth rescue (activation)": "inactive: -15.3%"}
{"smiles": "O=[N+]([O-])c1ccccc1CNc1ccc(F)c(Cl)c1", "Potency": "active: 15.8 µM"}
{"smiles": "COc1ccc(CNc2nc3ccccc3n2C)c(O)c1", "growth rescue (activation)": "inactive: 1.77%"}
{"smiles": "O=C(COC(=O)CNC(=O)c1ccccc1F)Nc1ccc(Cl)cn1", "growth rescue (activation)": "inactive: 19.9%"}
{"smiles": "CCSC1=N/C(=C\\C=C2/Oc3ccccc3N2CC)C(=O)S1", "growth rescue (activation)": "inactive: -16.5%"}
{"smiles": "O=C(CSc1cccc2cccc(Cl)c12)NCc1cccs1", "growth rescue (activation)": "inactive: 0.528%"}
